{"source": "PubChem BioAssay AID493208", "about": "(National Center for Advancing Translational Sciences (NCATS), 2011)", "note": "Screen size: about 44,000 compounds; about 340 (0.77%) were called active. Another 5% or so got no clear call; they are omitted. The call rests on the fitted dose curve; in most records, active means well fitted inhibition curve with a large enough effect; inconclusive means small, poorly fitted or top-dose-only effect; inactive means flat fitted curve, though single readings scatter. The list shows a part of the results."}
{"assay": "Acumen qHTS Assay for Inhibitors of the mTORC1 Signaling Pathway in MEF (Tsc2-/-, p53-/-) Cells: Sytravon;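 further: plate controls were DMSO for no effect and rapamycin for full effect; nearly all actives have a fitted effect of over 50% in size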", "details": "phospho-rpS6 immunofluorescence/PI, 24 h; series mostly up to 38.3 µM; activity change, negative = inhibition: at the top concentration", "outline": "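Readout is phospho-S6 Alexa 488 signal normalized to PI per well, reported as % active cells with thresholds set from rapamycin (7.5 nM) and DMSO controls. Cells: Tsc2-/-, p53-/- MEFs, 24 hrs compound at 37 C; PI cell number serves as viability.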"}
{"smiles": "CCOCCCn1c(SCC(=O)Nc2ccc(C)cc2)nc2ccccc2c1=O", "activity change, negative = inhibition": "inactive: -2.22%"}
{"smiles": "Cc1cc(C)n(C(C)CC(=O)NCc2ccc(N(C)C)cc2)n1", "note": "(stereo unspecified)", "activity change, negative = inhibition": "inactive: -22.9%"}
{"smiles": "COC(=O)c1cc2sccc2n1Cc1nc(-c2ccc(Cl)cc2)oc1C", "activity change, negative = inhibition": "inactive: -3.11%"}
{"smiles": "CCc1ccccc1NC(=O)c1ccc2c(c1)N(Cc1cc(C)ccc1C)C(=O)c1ccccc1S2(=O)=O", "activity change, negative = inhibition": "inactive: 0.0579%"}
{"smiles": "COc1ccc(CNC(=O)C(C)n2ccc3cc(S(=O)(=O)N4CCCC4)ccc32)cc1OC", "note": "(stereo unspecified)", "activity change, negative = inhibition": "inactive: 0.23%"}
{"smiles": "Cc1cc(C)c(NC(=O)C2CCN(c3nnc(C)c4c(C)n(-c5ccccc5)nc34)CC2)c(C)c1", "activity change, negative = inhibition": "inactive: -7.5%"}
{"smiles": "COc1ccccc1NC(=O)C1=C(C)Nc2nc(SCc3ccccc3C)nn2C1CC(C)C", "note": "(stereo unspecified)", "activity change, negative = inhibition": "inactive: 0.306%"}
{"smiles": "Cc1cc(C)cc(NS(=O)(=O)c2ccc3c(c2)CCCN3C(=O)C2CCC2)c1", "activity change, negative = inhibition": "inactive: -0.272%"}
{"smiles": "COc1ccc(-n2ncc(C(=O)N3CCc4ccccc4C3)c2C2CCN(C(=O)OC(C)(C)C)CC2)cc1", "activity change, negative = inhibition": "inactive: -1.91%"}
{"smiles": "CCc1ccc2oc(C(=O)Nc3nonc3CC)c(C)c2c1", "activity change, negative = inhibition": "inactive: -2.85%"}
{"smiles": "Cc1oc2ncn(C)c(=O)c2c1C(=O)NCCCN1CCCC(C)C1", "note": "(stereo unspecified)", "activity change, negative = inhibition": "inactive: 1.65%"}
{"smiles": "O=C(Nc1ccc(Br)cc1F)c1ncoc1-c1ccco1", "activity change, negative = inhibition": "inactive: 1.83%"}
{"smiles": "COc1ccc(CNC(=O)CN(c2cc(C)cc(C)c2)S(=O)(=O)c2c(C)[nH]c(=O)[nH]c2=O)cc1", "activity change, negative = inhibition": "inactive: -1.43%"}
{"smiles": "COc1ccc(-c2cc(C(F)(F)F)n3nc(C(=O)NCC45CC6CC(CC(C6)C4)C5)cc3n2)cc1", "activity change, negative = inhibition": "inactive: -11.4%"}
{"smiles": "O=C(COc1ccccc1)N(Cc1cccnc1)c1nc2ccc(F)cc2s1", "activity change, negative = inhibition": "inactive: 2.2%"}
{"smiles": "CCOc1cc(-c2nc(-c3ccc(Br)cc3)no2)cc(OCC)c1OCC", "activity change, negative = inhibition": "inactive: 2.59%"}
{"smiles": "O=C(CN1C(=O)COc2ccc(S(=O)(=O)N3CCOCC3)cc21)N1CCN(c2ccccc2)CC1", "activity change, negative = inhibition": "inactive: -28.9%"}
{"smiles": "COCCCNC(=O)c1ccc2c(=O)n(Cc3ccc(OC)cc3)c(=O)[nH]c2c1", "activity change, negative = inhibition": "inactive: -17.3%"}
{"smiles": "Cc1nc(-c2ccc(C)c(S(=O)(=O)N3CCC(C(=O)NCc4ccc(Cl)cc4)CC3)c2)no1", "activity change, negative = inhibition": "inactive: -1.64%"}
{"smiles": "COc1ccc(CCNC(=O)C2CCCN(c3nc4c(C)cc(C)cc4s3)C2)cc1OC", "note": "(stereo unspecified)", "activity change, negative = inhibition": "inactive: -4.67%"}
{"smiles": "COc1ccc(C2=C(C)C(=O)N(Cc3ccc(C(=O)NCc4ccc(C)cc4)cc3)S2(=O)=O)cc1", "activity change, negative = inhibition": "inactive: 0.152%"}
{"smiles": "Cc1ccc(S(=O)(=O)C(CNC(=O)c2ccccc2F)c2cccs2)cc1", "note": "(stereo unspecified)", "activity change, negative = inhibition": "inactive: 0.0346%"}
{"smiles": "Cc1cccc(CSc2nc3c(c(=O)[nH]2)C(c2cccc(O)c2)CC(=O)N3)c1", "note": "(stereo unspecified)", "activity change, negative = inhibition": "inactive: -0.356%"}
{"smiles": "CCOC(=O)c1c(NC(=O)c2cc(C(C)C)on2)sc(C)c1C", "activity change, negative = inhibition": "inactive: -10.3%"}
{"smiles": "CCCCC(CC)CNC(=O)c1ccc2c(=O)n(Cc3ccc(OC)cc3)c(=O)[nH]c2c1", "note": "(stereo unspecified)", "activity change, negative = inhibition": "inactive: -24%"}
{"smiles": "Cn1nc(C(=O)NCc2ccc(Cl)cc2)c2c1-c1ccccc1SC2", "activity change, negative = inhibition": "inactive: 1.19%"}
